The source of these data is the supplement of paper PMC9927326.

One may read the MIC as the least concentration at which growth counts as inhibited.

MIC of clinical C. albicans isolates, CLSI broth microdilution (ranges and time not stated); higher = less susceptible. Call: susceptible or wild type [S] / resistant or non-wild type [R] by CLSI breakpoints or epidemiological cut-offs; intermediate and dose-dependent carry no call here (the paper groups them with resistant). '<=' and '>=' mark each drug's lowest and highest value, inferred; the source prints them plain. Isolates are numbered anew.

Holding throughout (test): CLSI broth microdilution.
On the technique in general: In broth dilution the organism is exposed to a series of concentrations in liquid medium.

Compound in experiment [1]: CC[C@@H]([C@H](C)O)n1ncn(-c2ccc(N3CCN(c4ccc(OC[C@@H]5CO[C@@](Cn6cncn6)(c6ccc(F)cc6F)C5)cc4)CC3)cc2)c1=O [posaconazole]
Compound in experiment [2]: CC[C@H](C)C[C@H](C)CCCCCCCCC(=O)N[C@H]1C[C@@H](O)[C@@H](NCCN)NC(=O)[C@@H]2[C@@H](O)CCN2C(=O)[C@H]([C@H](O)CCN)NC(=O)[C@H]([C@H](O)[C@@H](O)c2ccc(O)cc2)NC(=O)[C@@H]2C[C@@H](O)CN2C(=O)[C@H]([C@@H](C)O)NC1=O [caspofungin]
Compound in experiment [3]: C[C@@H]1[C@H](O)[C@@H](C)/C=C/C=C/C=C/C=C/C=C/C=C/C=C/[C@H](O[C@@H]2O[C@H](C)[C@@H](O)[C@H](N)[C@@H]2O)C[C@@H]2O[C@](O)(C[C@@H](O)C[C@@H](O)[C@H](O)CC[C@@H](O)C[C@@H](O)CC(=O)O[C@H]1C)C[C@H](O)[C@H]2C(=O)O [amphotericin B]
Compound in experiment [4]: OC(Cn1cncn1)(Cn1cncn1)c1ccc(F)cc1F [fluconazole]
Compound in experiment [5]: Nc1[nH]c(=O)ncc1F [flucytosine]
Compound in experiment [6]: CCC(C)n1ncn(-c2ccc(N3CCN(c4ccc(OCC5COC(Cn6cncn6)(c6ccc(Cl)cc6Cl)O5)cc4)CC3)cc2)c1=O [itraconazole]
Compound in experiment [7]: C[C@@H](c1ncncc1F)[C@](O)(Cn1cncn1)c1ccc(F)cc1F [voriconazole]
Compound in experiment [8]: CCCCCOc1ccc(-c2ccc(-c3ccc(C(=O)N[C@H]4C[C@@H](O)[C@@H](O)NC(=O)[C@@H]5[C@@H](O)[C@@H](C)CN5C(=O)[C@H]([C@@H](C)O)NC(=O)[C@H]([C@H](O)[C@@H](O)c5ccc(O)cc5)NC(=O)[C@@H]5C[C@@H](O)CN5C(=O)[C@H]([C@@H](C)O)NC4=O)cc3)cc2)cc1 [anidulafungin]
Compound in experiment [9]: CCCCCOc1ccc(-c2cc(-c3ccc(C(=O)N[C@H]4C[C@@H](O)[C@@H](O)NC(=O)[C@@H]5[C@@H](O)[C@@H](C)CN5C(=O)[C@H]([C@H](O)CC(N)=O)NC(=O)[C@H]([C@H](O)[C@@H](O)c5ccc(O)c(OS(=O)(=O)O)c5)NC(=O)[C@@H]5C[C@@H](O)CN5C(=O)[C@H]([C@@H](C)O)NC4=O)cc3)no2)cc1 [micafungin]

Consider “Candida albicans isolate 101 (Erg11p: E266D, Fur1p: WT, Tac1p: N896S,I558V,P530L,A377V,F189S,N174D,M170I,K87N)”, for which the minimum inhibitory concentration (MIC) was 0.015 mg/L [S] in experiment [1]; 0.03 mg/L [S] in experiment [2]; 0.25 mg/L [S] in experiment [3]; 0.5 mg/L [S] in experiment [4]; at most 0.06 mg/L [S] in experiment [5]; at most 0.015 mg/L [S] in experiment [6]. Further, the minimum inhibitory concentration (MIC) in experiment [7] was at most 0.008 mg/L [S]; in [8], at most 0.015 mg/L [S]; in [9], 0.015 mg/L [S].
In the case of “Candida albicans isolate 102 (Erg11p: E266D, Fur1p: WT, Tac1p: N896S)”, the minimal inhibitory concentration (MIC) in [1] is 0.015 mg/L [S]; in experiment [2], 0.03 mg/L [S]; in [3], 0.25 mg/L [S]; in experiment [4] it was 0.5 mg/L [S]; in [5], at most 0.06 mg/L [S]; in experiment [6], at most 0.015 mg/L [S]. Further, the MIC in experiment [7] was at most 0.008 mg/L [S]; in [8], 0.03 mg/L [S]; in [9] it was at most 0.008 mg/L [S].
On to “Candida albicans isolate 103 (Erg11p: Y257H,A114S, Fur1p: R101C, Tac1p: A736V)”, for which the minimal inhibitory concentration (MIC) in experiment [1] was 0.5 mg/L [R]; in [2] it was 0.03 mg/L [S]; in experiment [3], 0.25 mg/L [S]; in experiment [4], 16 mg/L [R]; in experiment [5] it was at most 0.06 mg/L [S]; in experiment [6], 0.5 mg/L [R]. Moreover, the MIC in experiment [7] is 0.5 µg/mL; in experiment [8], at most 0.015 mg/L [S]; in experiment [9] it was 0.015 mg/L [S].
Regarding “Candida albicans isolate 104 (Erg11p: Y257H,A114S, Fur1p: R101C, Tac1p: A736V)”, the MIC is 1 mg/L [R] in experiment [1]; 0.03 mg/L [S] in experiment [2]; 0.5 mg/L [S] in experiment [3]; 32 mg/L [R] in experiment [4]; 0.12 mg/L [S] in [5]; 0.5 mg/L [R] in experiment [6]. Moreover, the MIC was 1 mg/L [R] in [7], at most 0.015 mg/L [S] in experiment [8] and 0.015 mg/L [S] in experiment [9].
As to “Candida albicans isolate 105 (Erg11p: V488I,E266D, Fur1p: WT, Tac1p: N896S,I558V,A377V,F189S,N174D,M170I,K87N)”, the MIC was 0.03 mg/L [S] in experiment [1]; 0.12 mg/L [S] in experiment [2]; 0.5 mg/L [S] in experiment [3]; 0.5 mg/L [S] in experiment [4]; at most 0.06 mg/L [S] in experiment [5]; 0.06 mg/L [S] in experiment [6]. The minimum inhibitory concentration (MIC) in experiment [7] is at most 0.008 mg/L [S]; in experiment [8], 0.06 mg/L [S]; in experiment [9] it was 0.03 mg/L [S].
Take “Candida albicans isolate 106 (Erg11p: V437I,E266D, Fur1p: WT, Tac1p: F189S,N174D,M170I,A90T,K87N)”: the MIC in experiment [1] is 0.03 mg/L [S]; in experiment [2], 0.06 mg/L [S]; in [3], 0.5 mg/L [S]; in experiment [4] it was 1 mg/L [S]; in experiment [5], at most 0.06 mg/L [S]; in experiment [6], 0.06 mg/L [S]. For the same test system, the MIC in experiment [7] stood at 0.015 mg/L [S]; in experiment [8] it was 0.12 mg/L [S]; in experiment [9] it was 0.015 mg/L [S].
Regarding “Candida albicans isolate 107 (Erg11p: D153E, Fur1p: WT, Tac1p: N896S)”, the minimum inhibitory concentration (MIC) is 0.015 mg/L [S] in experiment [1]; 0.03 mg/L [S] in experiment [2]; 0.25 mg/L [S] in [3]; 0.25 mg/L [S] in experiment [4]; at most 0.06 mg/L [S] in experiment [5]; at most 0.015 mg/L [S] in experiment [6]. For the same test system, the values for the minimal inhibitory concentration (MIC) in experiment [7], in [8] and in experiment [9] were at most 0.008 mg/L [S], at most 0.015 mg/L [S] and 0.015 mg/L [S], respectively.
With “Candida albicans isolate 108 (Erg11p: G100V, Fur1p: WT, Tac1p: N896S)”, the MIC in experiment [1] is 0.015 mg/L [S]; in experiment [2], 0.015 mg/L [S]; in experiment [3], 0.25 mg/L [S]; in experiment [4], 0.5 mg/L [S]; in experiment [5], at most 0.06 mg/L [S]; in [6] it was 0.03 mg/L [S]. Also, the MIC in [7] is at most 0.008 mg/L [S]; in experiment [8] it was at most 0.015 mg/L [S]; in experiment [9] it was at most 0.008 mg/L [S].
Consider “Candida albicans isolate 109 (Erg11p: Y132H,T123I, Fur1p: R101C, Tac1p: WT)”, for which the MIC is 0.03 mg/L [S] in experiment [1]; 0.015 mg/L [S] in experiment [2]; 0.5 mg/L [S] in [3]; 4 µg/mL in experiment [4]; 0.5 mg/L [S] in experiment [5]; 0.12 mg/L [S] in experiment [6]. In addition, the minimum inhibitory concentration (MIC) is 0.5 µg/mL in experiment [7], at most 0.015 mg/L [S] in experiment [8] and 0.015 mg/L [S] in experiment [9].
Turning to “Candida albicans isolate 110 (Erg11p: V437I,E266D, Fur1p: WT, Tac1p: T885K,R869Q,T782A,I558V,A377V,T353S,F189S,M170V)”, the MIC in experiment [1] was 0.03 mg/L [S]; in experiment [2], 0.03 mg/L [S]; in experiment [3], 0.5 mg/L [S]; in [4], 1 mg/L [S]; in experiment [5] it was at most 0.06 mg/L [S]; in [6] it was 0.12 mg/L [S]. The minimum inhibitory concentration (MIC) was 0.015 mg/L [S] in experiment [7], at most 0.015 mg/L [S] in [8] and at most 0.008 mg/L [S] in [9].
In the case of “Candida albicans isolate 111 (Erg11p: V488I,E266D, Fur1p: WT, Tac1p: N896S)”, the MIC in experiment [1] is 0.015 mg/L [S]; in experiment [2], 0.03 mg/L [S]; in [3], 0.25 mg/L [S]; in experiment [4], 0.25 mg/L [S]; in experiment [5], at most 0.06 mg/L [S]; in [6], 0.03 mg/L [S]. The results for the MIC in [7], in [8] and in [9] were at most 0.008 mg/L [S], 0.12 mg/L [S] and 0.015 mg/L [S], respectively.
For the test system “Candida albicans isolate 112 (Erg11p: V488I,E266D, Fur1p: WT, Tac1p: N896S,I895T)”, the minimum inhibitory concentration (MIC) in experiment [1] was 0.03 mg/L [S]; in [2] it was 0.03 mg/L [S]; in experiment [3], 0.5 mg/L [S]; in experiment [4] it was 0.5 mg/L [S]; in experiment [5] it was at most 0.06 mg/L [S]; in experiment [6], 0.03 mg/L [S]. Besides, the minimal inhibitory concentration (MIC) in experiment [7] is at most 0.008 mg/L [S]; in [8], 0.06 mg/L [S]; in experiment [9] it was 0.015 mg/L [S].
Consider “Candida albicans isolate 113 (Erg11p: WT, Fur1p: WT, Tac1p: I558V,A377V,F189S,N174D,M170I,K87N)”, for which the MIC in experiment [1] is at most 0.008 mg/L [S]; in experiment [2], 0.03 mg/L [S]; in [3], 0.25 mg/L [S]; in experiment [4], at most 0.12 mg/L [S]; in [5], at most 0.06 mg/L [S]; in [6] it was at most 0.015 mg/L [S]. For the same test system, the minimum inhibitory concentration (MIC) in [7] was at most 0.008 mg/L [S]; in experiment [8], 0.03 mg/L [S]; in experiment [9], 0.015 mg/L [S].
Take “Candida albicans isolate 114 (Erg11p: E266D,G129A, Fur1p: WT, Tac1p: R869Q,L695F,I558V,A377V,F189S,M170V,L131I)”: the MIC was 0.015 mg/L [S] in experiment [1]; 0.015 mg/L [S] in experiment [2]; 0.25 mg/L [S] in experiment [3]; 0.5 mg/L [S] in experiment [4]; at most 0.06 mg/L [S] in experiment [5]; at most 0.015 mg/L [S] in experiment [6]. The MIC in experiment [7] was at most 0.008 mg/L [S]; in experiment [8] it was at most 0.015 mg/L [S]; in experiment [9], 0.015 mg/L [S].
For “Candida albicans isolate 115 (Erg11p: V488I,E266D, Fur1p: WT, Tac1p: M170V,S108N)”, the MIC was 0.03 mg/L [S] in experiment [1]; 0.03 mg/L [S] in experiment [2]; 1 mg/L [S] in experiment [3]; 0.25 mg/L [S] in experiment [4]; at most 0.06 mg/L [S] in [5]; 0.03 mg/L [S] in [6]. Also, the figures for the minimal inhibitory concentration (MIC) in experiment [7], in experiment [8] and in experiment [9] were at most 0.008 mg/L [S], 0.03 mg/L [S] and 0.015 mg/L [S], respectively.
Turning to “Candida albicans isolate 116 (Erg11p: E266D,D153E, Fur1p: WT, Tac1p: C858Y,N823K,I558V,F189S)”, the MIC was 0.015 mg/L [S] in experiment [1]; 0.015 mg/L [S] in experiment [2]; at most 0.12 mg/L [S] in [3]; 0.5 mg/L [S] in [4]; at most 0.06 mg/L [S] in [5]; at most 0.015 mg/L [S] in [6]. The minimum inhibitory concentration (MIC) is at most 0.008 mg/L [S] in experiment [7], at most 0.015 mg/L [S] in [8] and at most 0.008 mg/L [S] in experiment [9].
